Measurements taken from PubChem BioAssay AID1745853 (National Center for Advancing Translational Sciences (NCATS), 2022).
Several values for one entry are separate records, joined by “and”; a condition that tells them apart may be missing. Equal values may be shown once. This is one part of the list. The main result of the screen is listed elsewhere. These columns were measured beside it and carry no call.

Key:
Assay in all cases: Primary Screen for Target Class Profiling of Small Molecule Inhibitors of Methyltransferases
[1] = target: Glycine N-methyltransferase (Homo sapiens) (UniProt Q14749); details: purified enzyme, MTase-Glo SAH luminescence; measured here: GNMT inhibition; at 40 µM; stronger effect = lower value
Excerpt: (§1) PI: Matthew D. Hall Ph.D. and Quinlin M. Hanson Ph.D.
(§2) National Center for Advancing Translational Sciences (NCATS)
(§3) National Institute of Health (NIH), Rockville, MD
(§4) Target class profiling (TCP) is a chemical biology approach amenable to investigating understudied biological targets. TCP is achieved by developing a generalizable assay platform and applying it to screen a curated set of compound libraries against representative members of a target class. Small molecule methyltransferases (SMMTase) are a subclass of methyltransferase that act on metabolites to modulate signaling pathways, metabolize xenobiotics, or balance the available methyl pool. We screened four curated libraries totaling 27,574 unique compounds against the SMMTases nicotinamide N-methyltransferase (NNMT), phenylethanolamine N-methyltransferase (PNMT), histamine N-methyltransferase (HNMT), glycine N-methyltransferase (GNMT), catechol O-methyltransferase (COMT), and guanidinoacetate N-methyltransferase (GAMT). The data generated by this TCP can be leveraged for informed tool molecule development. For example, in the associated publication we identified a chemotype of HNMT-selective inhibitors. Additionally, we identified a putative SMMTase-selective inhibitor with potential as a tool molecule for studying broader methyltransferase biology.
(§5) High-through put screening assays were developed at the National Center for Advancing Translational Science (NCATS) for the enzymes NNMT, PNMT, HNMT, GNMT, COMT, and GAMT. Enzymatic activity was measured as a function of SAM cofactor conversion using the MTase Glo kit (Promega) for all enzymes. All assays were performed in 1536-well format with substrates and SAM concentrations at KM values. Enzyme concentration and assay timing were optimized for 10-20% SAM conversion. Initial screening of 27,574 compounds was done as single-point assays using the highest compound concentration (40 uM). […] These compounds were replated in 11-point dose response and assayed against NNMT, PNMT, HNMT, GNMT, COMT, GAMT, and a counter-assay. The IC50 and efficacy (maximal response) values were determined for each dose-response curve. These values are also accounted for in the area under the curve (AUC) values.
(§6) PROTOCOL TABLE (as described by Inglese J, Shamu CE and Guy RK. 2007)
(§7) SEQUENCE No. (e.g., 1, 2, 3, etc.); […] (e.g., Cells, Incubation, Reagent, etc.); VALUE; DESCRIPTION.
(§8) 1; Reagent; 2 uL; SMMTase Enzyme (2x) in reaction buffer, columns 1- 48.
(§9) 2; Reagent; 1 uL; SAM (4x) in reaction buffer, columns 1-48.
(§10) 3; Controls; 23 nL; DMSO in column 4; sinefungin in DMSO (0 uM - 40 uM) in 7-point 1:2 dilution series (n = 2) in column 2.
(§11) 4; Compounds; 23 nL; Columns 5-48.
(§12) 5; Reagent; 1 uL; Substrate (4x) in reaction buffer, columns 2-48.
(§13) 6; Time; 20-30 min; Incubation.
(§14) 7; Reagent; 1 uL; MTase-Glo reagent (5X), columns 1-48.
(§15) 8; Time; 30 min; Incubation.
(§16) 9; Reagent; 5 uL; MTase-Glo Detection reagent, columns 1-48.
(§17) 10; Time; 30 min; Incubation, luminescence evolution.
(§18) 11; Detection; Luminescence; ViewLux uHTS Microplate Imager (PerkinElmer).
(§19) NOTES (numbers refer to Sequence numbers above)
(§20) 1, 2, 5. White Medium Binding Greiner 1536-well plates (Cat #789175-F, Greiner Bio-One, Monroe, NC); Reaction buffer: 50 mM Tris, pH 8.0, 3 mM MgCl2, 1 mM EDTA, 50 mM NaCl, 1 mM DTT, and 0.1 mg/mL BSA. Evaporation was prevented by covering assay plates with metal lids containing holes to allow gas diffusion.
(§21) 1. Six SMMTase were profiled: HNMT, GNMT, PNMT, COMT, NNMT, GAMT
(§22) 5. The corresponding substrate was used for each enzyme: HNMT - 5.3 uM Histamine; GNMT - >500 uM Glycine; PNMT - 16.2 uM Norephinephrine; COMT - 13.7 uM Norephinephrine; NNMT - 3.8 uM Nicotinamide; GAMT - 2.5 uM Guanidinoacetate.6, 8, 10. Room temperature
(§23) 6. Final reaction conditions: 10 nM COMT, 5 uM SAM, 15 uM norepinephrine, 50 mM Tris, pH 8.0, 3 mM MgCl2, 1 mM EDTA, 50 mM NaCl, 1 mM DTT, and 0.1 mg/mL BSA; refer to tables 2 and S1 for specific timing.
8. […]

[2] = target: Guanidinoacetate N-methyltransferase (Homo sapiens) (UniProt Q14353); details: purified enzyme, MTase-Glo SAH luminescence; measured here: GAMT inhibition; at 40 µM; stronger effect = lower value
Excerpt: as §1, §2, §3, §4, §5, §6, §7, §8, §9, §10, §11, §12, §13, §14, §15, §16, §17, §18, §19, §20, §21, §22, §23
8. […]

[3] = target: Histamine N-methyltransferase (Homo sapiens) (UniProt P50135); details: purified enzyme, MTase-Glo SAH luminescence; measured here: HNMT inhibition; at 40 µM; stronger effect = lower value
Excerpt: as §1, §2, §3, §4, §5, §6, §7, §8, §9, §10, §11, §12, §13, §14, §15, §16, §17, §18, §19, §20, §21, §22, §23
8. […]

[4] = target: Nicotinamide N-methyltransferase (Homo sapiens) (UniProt P40261); details: purified enzyme, MTase-Glo SAH luminescence; measured here: NNMT inhibition; at 40 µM; stronger effect = lower value
Excerpt: as §1, §2, §3, §4, §5, §6, §7, §8, §9, §10, §11, §12, §13, §14, §15, §16, §17, §18, §19, §20, §21, §22, §23
8. […]

[5] = target: Phenylethanolamine N-methyltransferase (Homo sapiens) (UniProt P11086); details: purified enzyme, MTase-Glo SAH luminescence; measured here: PNMT inhibition; at 40 µM; stronger effect = lower value
Excerpt: as §1, §2, §3, §4, §5, §6, §7, §8, §9, §10, §11, §12, §13, §14, §15, §16, §17, §18, §19, §20, §21, §22, §23
8. […]
% is set by controls: 0 for no effect and ±100 for the full control effect.

Row | SMILES | activity change, negative = inhibition [1] | activity change, negative = inhibition [2] | activity change, negative = inhibition [3] | activity change, negative = inhibition [4] | activity change, negative = inhibition [5]
1 | COc1ccc(NC(=O)N2Cc3ccccc3-n3cccc3C2c2ccc(N(C)C)cc2)cc1OC (stereo not given) | 2.88% | 0.623% | 1.17% | -2.13% | 1.9%
2 | COc1ccc(C2c3cccn3-c3ccccc3CN2C(=O)NCc2ccc(C)cc2)cc1OC (stereo not given) | 11.9% | 0% | 5.71% | 3.05% | 4.96%
3 | COc1cccc(NC(=O)N2Cc3ccccc3-n3cccc3C2c2cc(F)cc(F)c2)c1 (stereo not given) | 4.65% | 0% | 4.01% | 1.44% | -0.03%
4 | COc1ccc(Cl)cc1NC(=O)N1Cc2ccccc2-n2cccc2C1c1cccs1 (stereo not given) | 14.9% | 5.31% | 7.11% | -0.562% | 9.6%
5 | CCc1nc(C)c(C(=O)N2C[C@@H](c3ccc(F)cc3)[C@@H]3[C@H]2C2CCN3CC2)o1 | -0.612% | 1.98% | 1.32% | -2.45% | -0.273%
6 | CC[C@@H](CO)NC(=O)[C@@H]1C=C2c3cccc4c3c(cn4C)C[C@H]2N(C)C1 | -44.7% | -12.3% | -13.1% | -22.1% | -63.1%
7 | COc1ccc2c(c1)c(CCN(C)C)cn2S(=O)(=O)c1ccccc1 | -3.31% | 9.3% | 2.63% | -14.3% | 0.86%
8 | CNC(=O)c1ccc(N2C(=S)N(c3ccc(C#N)c(C(F)(F)F)c3)C(=O)C23CCC3)cc1F | 1.69% | 3.7% | 11.8% | -14.7% | 2.25%
9 | COc1ccc(NC(=O)N2Cc3ccccc3-n3cccc3C2c2ccccc2)cc1 (stereo not given) | 6.17% | -1.64% | -5.06% | -5.2% | -1.2%
10 | COc1ccsc1CNCC[C@@]1(c2ccccn2)CCOC2(CCCC2)C1 | 1.62% | -4.16% | 4.88% | -13.5% | 0.579%
11 | CO[C@H]1[C@@H](O)[C@@H](C)O[C@@H](O[C@@H]2C=C3C(OC(C)=O)CC4(O)C(CC[C@]5(C)[C@@H](C6=CC(=O)OC6)CC[C@]45O)[C@@]3(C)CC2)[C@@H]1O (stereo not given in full) | 0% | -1.44% | -3.77% | -12.1% | -2.63%
12 | CCC1c2cccn2-c2ccccc2CN1C(=O)Nc1ccc(Br)cc1 (stereo not given) | 2.49% | 4.41% | -0.253% | 2.58% | 5.66%
13 | CN(C)c1ccc(C2c3cccn3-c3ccccc3CN2C(=O)Nc2ccc3c(c2)OCCO3)cc1 (stereo not given) | 7.54% | 1.04% | 2.47% | -0.585% | 5.23%
14 | COc1ccc2c(c1OC)CN1CCc3cc4c(cc3C1C2)OCO4 (stereo not given) | – | -11.8% | – | -28.4% | -6.14%
15 | COc1ccc(C2c3cccn3-c3ccccc3CN2C(=O)Nc2ccccc2OC)cc1 (stereo not given) | 14.1% | 4.39% | 4.94% | 7.62% | 10.9%
16 | CCCCCCC1C(=O)O[C@H](C)[C@H](NC(=O)c2cccc(NC=O)c2O)C(=O)O[C@@H](C)[C@@H]1OC(=O)CC(C)C (stereo not given in full) | -24.1% | – | 0.984% | – | –
17 | COc1ccc([C@@H]2CN(C(=O)Cc3nonc3C)[C@@H]3C4CCN(CC4)[C@@H]32)cc1 | -4.48% | -0.641% | -0.54% | -8.32% | -1.36%
18 | O=C(Nc1ccc(=O)n2c1[C@@H]1C[C@@H](CN(C(=O)NC3CCCCC3)C1)C2)c1ccco1 | -5.15% | -4.02% | -1.38% | -9.04% | -6.78%
19 | O=C(NCCc1ccccc1)N1Cc2ccccc2-n2cccc2C1c1ccccc1 (stereo not given) | 3.71% | 0% | 1.16% | -0.544% | 3.36%
20 | CC1c2cccn2-c2ccccc2CN1C(=O)Nc1ccc(F)cc1F (stereo not given) | 6.38% | 1.07% | -0.48% | -3.52% | 3.89%
21 | CCOc1ccc(C2c3cccn3-c3ccccc3CN2C(=O)Nc2cccc(SC)c2)cc1 (stereo not given) | 4.61% | 1.13% | 4.87% | 2.32% | 7.54%
22 | Cc1nc(-c2ccccc2)cc([C@H]2CN3CC[C@H]2C[C@@H]3CNS(C)(=O)=O)n1 | 0.758% | -6.84% | -4.23% | -12.9% | 2.94%
23 | CC(C)C1=NOC2(CCCN(Cc3ccccn3)C2)C1 (stereo not given) | -1.03% | 1.06% | 1.45% | -4.3% | 15.7%
24 | CC12NC(Cc3ccccc31)c1ccccc12 (stereo not given) | 8.3% | 8.58% | 2.62% | -7.82% | -1.94%
25 | CN(C)c1ccc(C2c3cccn3-c3ccccc3CN2C(=O)Nc2ccc(F)cc2)cc1 (stereo not given) | 7.21% | -0.339% | -8.2% | -2.88% | 2.03%
26 | C[C@H](Nc1ncnc2nc[nH]c12)c1nc2ccc(F)cc2c(=O)n1-c1ccccc1 | -13.9% | -22.6% | -3.23% | -24% | 2.2%
27 | C=C[C@H]1CN2CC[C@H]1C[C@@H]2CNC(=O)Nc1ccc(Br)cc1 | -4.61% | -4.09% | -76.1% | -8.88% | -14.3%
28 | CCNC(=O)CC1N=C(c2ccc(Cl)cc2)c2cc(OC)ccc2-n2c(C)nnc21 (stereo not given) | 2.78% and -2.13% and 3.32% | -2.44% | 9.27% and 4.67% and 10.1% | -13.3% and 4.18% | 5.21% and 31.8%
29 | O=C1C=CC[C@@H]2[C@H]3CCCN4CCC[C@@H](CN12)[C@@H]34 | 2.9% | 1.03% | 0.77% | -10.7% | -1.73%
30 | Cc1ccccc1C1c2cccn2-c2ccccc2CN1C(=O)Nc1ccc(Cl)cc1 (stereo not given) | 11.8% | 0% | 10.7% | 0.226% | 8.71%
